About 4,300 (8.3%) of roughly 52,000 compounds were called active. Rule as the data show it: active = survival mostly below about 52% (no sharp cut-off); inactive = mostly above about 56%. The list shows a part of the results.
Test system: DeltatarO mutant
Test: S. aureus survival, RN4220 and DeltatarO strains – OD600, teichoic acid synthesis inhibitors, primary screen (AID 463173)
Settings: S. aureus RN4220 wild type/DeltatarO growth, OD600, 18 h, stronger effect = lower value, screened at 18.75 µg/mL (by protocol)

| Structure (SMILES) | survival |
| --- | --- |
| CCN(C(=O)CSc1nnc(-c2cc(OC)c(OC)c(OC)c2)o1)c1ccccc1 | inactive: 84% |
| CCc1ccc(Nc2nc(C)cc(C)c2C(N)=O)cc1 | inactive: 83% |
| Cc1ccccc1CNC(=O)c1cccc(NC(=O)N2CCSc3ncccc32)c1 | inactive: 120% |
| CCOC(=O)c1c(S(=O)(=O)N2CCCC(C(=O)Nc3cccc(C#N)c3)C2)c(C)n(C)c1C (configuration not stated) | inactive: 67% |
| CC(Oc1ccccc1)C(=O)Nc1ccc(OCc2cc(=O)n3ccsc3n2)cc1 (configuration not stated) | inactive: 76% |
| OC(CNc1ccccn1)COc1ccc(OCC(O)CNc2ccccn2)cc1 (configuration not stated) | inactive: 79% |
| Cc1ccc(Cl)cc1NC(=O)C1CCCN(S(=O)(=O)c2cccc3cccnc23)C1 (configuration not stated) | inactive: 62% |
| COc1ccccc1CNC(=O)CSc1nc2nc(C)c(Cc3ccccc3Cl)c(C)n2n1 | active: 46% |
| COc1ccc(C(=O)NCCN=C2NS(=O)(=O)c3ccccc32)cc1 | inactive: 93% |
| COc1ccc(N2C(=O)CS(=O)(=O)C23C(=O)N(Cc2ccc(F)cc2)c2ccc(C)cc23)cc1 (configuration not stated) | inactive: 71% |
| CCC(=O)N1CCc2cc(Br)cc(S(=O)(=O)N3CCCC(C(=O)Nc4cccc(C)c4C)C3)c21 (configuration not stated) | inactive: 95% |
| CC(CNC(=O)CN1C(=O)COc2ccc(S(=O)(=O)N3CCCCCC3)cc21)c1ccccc1 (configuration not stated) | inactive: 73% |
| COc1ccc(CCNC(=O)c2cccc(-n3cnc4cccnc43)c2C)cc1OC | inactive: 99% |
| Cc1cc(C)c2c(=O)[nH]c(SCC(=O)NCCc3ccccc3)nc2n1 | inactive: 61% |
| CCCCNC(=O)c1nn(-c2ccc(C)cc2)c(=O)n(C)c1=O | inactive: 78% |
| COc1ccc(-c2nc3cc(C)ccn3c2NC(=O)c2ccc(F)cc2)cc1 | active: 37% |
| CCn1c(SCC(=O)Nc2ccc(OC)cc2)nnc1C1CC1 | inactive: 91% |
| Cc1cc2c(cc1S(=O)(=O)N(C)CC(=O)Nc1ccc(C#N)cc1)OCC(=O)N2 | inactive: 76% |
| NS(=O)(=O)c1ccc(CCNC(=O)c2ccc3nc(CCc4ccccc4)oc3c2)cc1 | inactive: 89% |

| Structure (SMILES) | survival |
| --- | --- |
| Cc1cccc(C)c1NCc1nnc(SCC(N)=O)n1-c1ccccc1 | inactive: 80% |
| CCOC(=O)c1c(S(=O)(=O)NCC(=O)Nc2ccc(C)c(N(C)C)c2)c(C)n(C)c1C | inactive: 79% |
| Cn1c(=O)c2c(SCC(=O)NCc3ccco3)nc(-c3cccc(F)c3)nc2n(C)c1=O | inactive: 78% |
| CCOc1ccc(CC(=O)Nc2c(C(=O)Nc3ccc(OC)cc3OC)oc3ccccc23)cc1 | inactive: 79% |
| Cc1ccc(S(=O)(=O)c2cn(CC(=O)Nc3ccccc3C)c3cc4c(cc3c2=O)OCO4)cc1 | inactive: 60% |
| Cc1ccc(C(=O)N2Cc3ccccc3CC2C(=O)O)cc1 (configuration not stated) | inactive: 93% |
| CCOC(=O)C1CCC(CN(Cc2ccc(Cl)cc2)S(=O)(=O)c2cc(Cl)cc(Cl)c2)CC1 (configuration not stated) | inactive: 72% |
| Cc1cccc(N2CCN(C(=O)C3CCCN(S(=O)(=O)c4ccc(Br)s4)C3)CC2)c1C (configuration not stated) | inactive: 83% |
| Cc1ccc2scc(N3CCC(C)CC3)c(=O)c2c1 | inactive: 104% |
| CC(C)c1nc2ccc(C(=O)NCCCN3CCN(c4cccc(Cl)c4)CC3)cc2o1 | inactive: 74% |
| Cc1cccc(N2CCN(C(=O)CN3C(=O)COc4ccc(S(=O)(=O)N5CCC(C)CC5)cc43)CC2C)c1 (configuration not stated) | inactive: 67% |
| CCOC(=O)N1CCN(Cc2nc3cc([N+](=O)[O-])ccc3n2C(C)C)CC1 | inactive: 92% |
| CCOc1ccc(CCNC(=O)c2nc(-c3cccc(F)c3)n3c2CCCCC3)cc1OCC | inactive: 129% |
| COC(=O)c1ccc(S(=O)(=O)N(CCO)Cc2cc3cc(OC)c(OC)cc3[nH]c2=O)cc1 | inactive: 62% |
| CCOc1ccc(CNC(=O)c2cnc3sc(N4CCOCC4)nn3c2=O)cc1OC | inactive: 107% |
| O=C(O)c1ccc2c(c1)C(=O)NC2=O | inactive: 74% |
| COc1ccccc1NC(=O)CSc1nc2nccnc2c(=O)n1CCc1c[nH]c2ccccc12 | active: 38% |
| CCN(CC)CCNC(=O)CSc1nc2nc(C)c(Cc3ccccc3)c(C)n2n1 | inactive: 86% |
| Cc1[nH]c2ccccc2c1C(c1ccccc1)c1ccc(Cl)s1 (configuration not stated) | active: 0% |

| Structure (SMILES) | survival |
| --- | --- |
| COc1cccc(CNC(=O)Cc2ccc(NC(=O)N3CCSc4ncccc43)cc2)c1OC | inactive: 87% |
| O=C(Cc1ccccc1)N1CCC(c2nc3ccccc3[nH]2)CC1 | inactive: 79% |
| CCCOc1ccccc1C(=O)N1CCCCC1CCN1CCOCC1 (configuration not stated) | inactive: 88% |
| O=c1[nH]c(NCCO)nc2sc3c(c12)CCCC3 | inactive: 72% |
| COc1ccc(NC(=O)N2CCCC2C(=O)Nc2ccccc2)cc1 (configuration not stated) | inactive: 101% |
| O=C(Nc1ccccc1F)c1nc(SCc2ccc(F)cc2)ncc1Cl | inactive: 70% |
| N#Cc1cccc(C(c2nnnn2Cc2ccc(F)cc2)N2CCc3ccccc32)c1 (configuration not stated) | inactive: 90% |
| CCN(C(=O)Cn1ncc2c(=O)oc3ccc(C)cc3c21)c1cc(OC)ccc1OC | inactive: 96% |
| CC1CCc2noc(NC(=O)c3ccccc3[N+](=O)[O-])c2C1 (configuration not stated) | inactive: 107% |
| CCOC(=O)C1CCCN(S(=O)(=O)c2ccc(N3CCCCS3(=O)=O)cc2)C1 (configuration not stated) | inactive: 55% |
| Cc1cc(C(F)F)n2nc(C(=O)Nc3cc(Cl)ccc3C)nc2n1 | inactive: 82% |
| CCc1cccc(C)c1NS(=O)(=O)c1cc(-c2cc(C)no2)ccc1C | inactive: 83% |
| COc1ccc(/C=C(\C#N)C(=O)NCc2ccco2)cc1C | inactive: 80% |
| Cc1ccc(-n2nc3ccc(NC(=O)c4oc5ccc(C)cc5c4C)cc3n2)cc1 | active: 38% |
| CCOc1ccc(OCC(=O)NCCS(=O)(=O)N2CCN(c3ccc(F)cc3)CC2)cc1 | inactive: 94% |
| CCc1ccccc1NC(=O)N1CCC(NC(=O)C(C)(C)C)CC1 | inactive: 92% |
| COc1ccc(NC(=O)c2ccco2)cc1NC(=O)C(C)C | inactive: 84% |
| O=C(CCC1CCCC1)N1CCc2c([nH]c3ccccc23)C1c1ccc(Cl)cc1 (configuration not stated) | inactive: 74% |
| CCc1ccc(NC(=O)c2ccc(F)c(S(=O)(=O)NC3CCCCCC3)c2)cc1 | active: -2% |

From PubChem BioAssay AID463173 (ICCB-Longwood Screening Facility, Harvard Medical School, 2010)
